# In all, about 4,500 sequences were measured (“median log2 fold change of GCK-ALFA target abundance (FLAG IP / Myc IP barcode read proportion)”: median about 0.078, lowest 2% from about -0.6 on). The list shows a part of the results.
# B1: GBRAP_160_4416 (protein)
# chain: EETIKEVEELLDETKELVLELVEEGERENALAAARVGAGEILLYLDEKEEVSEEAREEVDKVLDELIAELEANANATPEEVRKMLDEAKEKVLEILKKHT
# B2: GBRAP_26_5437 (protein)
# chain: LEEVEREAIRRLEEVAARIGDPEKAAAALAEAITLLHDFVETAEEKNLSPEELDELAEEEVEELREFLEDLGLSEELREELVETFREELERIKEALLKER
# B3: GBRAP_39_5704 (protein)
# chain: SMEEEAEEIFSYLEALGAKLAVERGLDMEEVEKETEELAKEVIEKYPELKELVEELLKLAKEKGDTAVLAAYGLLELIKEGLPLEEAREKLELLIKYLKK
# B4: GBRAP_11_2749 (protein)
# chain: KKEELKKIAELAEEAAKLLEALIKEGVDNEELIKKLKEKVKELEELVKKHGDESLKKLVEILKEEIEKALEDPENAEQYFKLALATARVLAGQVLLDIEE
# B5: GBRAP_11_2716 (protein)
# chain: KKEKLKELAKKAEELAKEVEKLIKEGPKEEELKKLKEEVKKLAEEAKKAGVDESIVKTLEIAAEDIAKAIEDPENVVEHLNNAKAALQVAAGDLLLEAEE
# B6: GBRAP_52_6059 (protein)
# chain: MEERIEELARRIAEAIAAGDLERALELLRRAIKELSVEEIRRMLELAAERVAKLGEEAHERFVELLEEAEELMKEAGISEEEAELIVGDAEAALARAVAA
# B7: GBRAP_16_4995 (protein)
# chain: DELLAKVEGAAEFAQLLLDAVKDEDPEAAKLVQEALDKLKAAAELLKKGGDKEEVEKELKAALKTLKELLKRYEDKDPELAAIVQTLIDQVKEALELLKK
# B8: GBRAP_160_4321 (protein)
# chain: SALMEELKKEIEEIAEEAKELIEGESPEQRRTIVKVALGEILLLAIENPEISDELEDKIAEIADAAEAELDANPDLSEEEVKELLEKAVKEILELIEKEE
# Target: GABARAP, O95166
# Experiment: median log2 fold change of GCK-ALFA target abundance (FLAG IP / Myc IP barcode read proportion) (log2 ratio); each designed protein is fused to an ALFA-tag nanobody in HEK293 cells to bring the named protein to FLAG-tagged glucokinase (GCK); Myc marks an untargeted standard; higher = target protein stabilised (more abundant)
# Details: target protein: 3xFLAG-MCP-GCK-ALFA reporter; HEK293 landing pad (RPLP)
# Summary of the method: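 HEK293 landing-pad cells received a recombined binder library fused to the ALFA nanobody and were induced with 2 μg mL^−1 doxycycline, then transfected with a plasmid encoding a FLAG-tagged target and a Myc-tagged standard. Lysates were collected after 48 h for anti-FLAG and anti-Myc immunoprecipitation, and the circular RNA barcodes were reverse transcribed, amplified and sequenced. Target abundance for each binder is the median log2 ratio of FLAG to Myc barcode read proportions. Barcodes had to reach a proportion of at least 10^−7 in both replicates, each binder needed at least 3 barcodes per replicate, a pseudocount of 10^−6 was applied, and the two replicates were pooled.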
# Chain of GABARAP, O95166 (O95166 whole entry, the tested form may be a part): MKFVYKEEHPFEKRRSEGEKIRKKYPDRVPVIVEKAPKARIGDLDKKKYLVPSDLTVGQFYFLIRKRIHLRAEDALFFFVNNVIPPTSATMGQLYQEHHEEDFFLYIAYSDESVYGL
row,Binder,median log2 fold change
1,B1,0.109
2,B2,-0.0854
3,B3,0.207
4,B4,0.275
5,B5,0.302
6,B6,0.0176
7,B7,0.0475
8,B8,-0.0253
